Data as given in article PMC4336329 (PLoS ONE, 2015).
Screen size: about 310,000 compounds; about 14,000 (4.5%) showed an effect of 50% or more. The effect is printed as a negative number. This is one part of the list. Where a SMILES comes first, the peptide text is derived from it. The star is where a group is joined. Boc = CC(C)(C)OC(=O)*

Target: human ether-à-go-go-related gene (hERG) potassium channel (human, UniProt Q12809)
Experiment: primary screen, population patch clamp on CHO cells stably expressing hERG
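Also: peak tail current of the secondary pulse compared with the same well before compound.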

Chain of human ether-à-go-go-related gene (hERG) potassium channel (Q12809 whole entry, looked up): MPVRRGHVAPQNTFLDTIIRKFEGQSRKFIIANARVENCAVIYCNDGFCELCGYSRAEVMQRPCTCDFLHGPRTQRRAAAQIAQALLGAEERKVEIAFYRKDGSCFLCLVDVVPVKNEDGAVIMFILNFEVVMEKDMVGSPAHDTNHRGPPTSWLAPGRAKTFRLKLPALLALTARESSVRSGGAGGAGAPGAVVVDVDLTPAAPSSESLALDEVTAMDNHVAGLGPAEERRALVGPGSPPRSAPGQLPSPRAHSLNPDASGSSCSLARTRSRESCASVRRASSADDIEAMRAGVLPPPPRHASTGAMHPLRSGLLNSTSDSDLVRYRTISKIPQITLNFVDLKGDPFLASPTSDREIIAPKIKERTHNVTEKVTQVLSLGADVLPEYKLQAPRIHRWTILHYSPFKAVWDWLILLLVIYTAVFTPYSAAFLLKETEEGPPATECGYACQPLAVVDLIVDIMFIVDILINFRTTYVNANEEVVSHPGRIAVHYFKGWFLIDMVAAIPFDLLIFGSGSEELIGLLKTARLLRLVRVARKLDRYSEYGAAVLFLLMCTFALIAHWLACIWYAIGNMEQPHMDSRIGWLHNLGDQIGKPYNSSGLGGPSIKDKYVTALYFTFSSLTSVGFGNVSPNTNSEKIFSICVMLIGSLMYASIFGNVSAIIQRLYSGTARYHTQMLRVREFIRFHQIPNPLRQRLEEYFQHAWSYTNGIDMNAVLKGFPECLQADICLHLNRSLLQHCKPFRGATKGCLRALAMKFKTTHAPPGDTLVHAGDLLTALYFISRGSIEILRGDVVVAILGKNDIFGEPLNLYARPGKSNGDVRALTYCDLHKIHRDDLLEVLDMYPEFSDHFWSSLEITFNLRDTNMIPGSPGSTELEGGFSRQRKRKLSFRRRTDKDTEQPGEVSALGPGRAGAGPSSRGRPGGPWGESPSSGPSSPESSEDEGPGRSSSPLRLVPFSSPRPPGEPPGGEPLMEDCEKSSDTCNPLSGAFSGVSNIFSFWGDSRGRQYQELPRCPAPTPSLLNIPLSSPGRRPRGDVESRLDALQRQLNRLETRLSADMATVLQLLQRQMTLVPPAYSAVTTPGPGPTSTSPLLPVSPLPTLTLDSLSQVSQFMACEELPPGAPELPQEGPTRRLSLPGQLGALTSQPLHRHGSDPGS

| SMILES | hERG current change (%, negative = inhibition) at 10uM |
| --- | --- |
| COc1cccc(OC)c1C1=CC(=O)C[C@H](c2ccc3c(c2)OCO3)C1 | 9.99% |
| Cc1ccc(Cl)cc1NC(=S)N1CCCCCC1 | 12.3% |
| COc1cc(C(=O)N2CCN(C(=O)Cc3ccccc3)CC2)cc(OC)c1OC | -20.2% |
| CC(C)C1NC2(C(=O)c3ccccc3C2=O)C2C(=O)N(c3ccc(F)cc3)C(=O)C12 (stereo not drawn) | -0.14% |
| CCOC(=O)c1c(C(=O)OCC)c(C)n(CCc2ccc(OC)c(OC)c2)c1C | -8.94% |
| CC(=O)Nc1ccc2c(c1)ncn2C1CCCCC1 | -1.69% |
| CCOC(=O)c1cccc(NC(=O)c2cnc3ccccc3n2)c1 | -14.1% |
| O=C(COc1ncnc2sccc12)NC1CCS(=O)(=O)C1 (stereo not drawn) | 9.65% |
| CCOc1ccc(CCNC(=O)C2CC(=O)N(c3ccccc3OCC)C2)cc1OCC (stereo not drawn) | 20.4% |
| Cc1c(S(=O)(=O)c2ccccn2)c(N)n(Cc2ccccc2Cl)c1C | 21.6% |
| CC(C)[C@H](NC(N)=O)C(=O)Nc1cccc(S(=O)(=O)N2CCOCC2)c1 | 15.8% |
| CCCCCC(C)n1[nH]c(=O)c2c(C)cc(C)nc21 (stereo not drawn) | -31.9% |
| COc1cc(/C=C/C(=O)N2CCC=CC2=O)cc(OC)c1OC | 10.1% |
| CCOC(=O)N/N=C\c1ccc(OC(=O)c2ccco2)cc1 | 22.5% |
| CCCCn1c(N)c(N(CC(C)C)C(=O)c2cc3c(s2)CCCCC3)c(=O)[nH]c1=O | -16.4% |
| Cc1cc(NC(=O)COC(=O)c2cc3c(s2)CCC(C)C3)no1 (stereo not drawn) | -2.09% |
| O=C(Nc1cccc(C(F)(F)F)c1)OCc1ccncc1 | -26.8% |
| Cc1c(CN2CCCC(C(=O)c3cccc(Cl)c3)C2)c(=O)n(-c2ccccc2)n1C (stereo not drawn) | -24% |
| C[C@H](NC(=O)c1nc[nH]c1C(=O)NCC(=O)OCc1ccccc1)C(=O)OC(C)(C)C | -8.39% |
| COc1ccc(NC(=O)CCc2ccccc2)cc1NC(=O)c1ccco1 | -26.6% |
| Cc1ccsc1/C=N/NC(=O)c1ccncc1 | 13.2% |
| Cc1cc(C)n(-c2nc3nonc3nc2-n2nc(C)cc2C)n1 | 15.2% |
| COc1ccc(C(=O)n2cnc3ccccc32)cc1[N+](=O)[O-] | 3.44% |

| SMILES | hERG current change (%, negative = inhibition) at 10uM |
| --- | --- |
| CCN(CC(=O)NC1CCCCCC1)S(=O)(=O)c1ccccc1 | -14.7% |
| COC(=O)C1=NN(C(C)(C)CC(C)=O)C2C(=O)N(C3CCCCC3)C(=O)C12 (stereo not drawn) | 9.76% |
| O=C(CCC1CCCC1)NCc1ccccn1 | 8.24% |
| COC(=O)C(C)(N)Cc1ccc(O)cc1.Cl (stereo not drawn) | 12.3% |
| O=C(Nc1ccc(Cl)cc1)C1C2C=CC3(O2)C1C(=O)N(CCCN1CCCCC1)C3C(=O)NC1CCCCC1 (stereo not drawn) | -5.14% |
| O=C(c1cccc(F)c1)N1CCN(C(=O)C(c2ccccc2)c2ccccc2)CC1 | -40.4% |
| C=CCOC(=O)C1=C[C@@H](c2ccc(C(F)(F)F)cc2)[C@H](CCCO)[C@@H](OCC)O1 | -36.6% |
| O=C1CCC(CCC(=O)N2CCCC(C(=O)c3ccc4c5c(cccc35)CC4)C2)=NN1 (stereo not drawn) | -54.4% |
| CCC(C)N(C(=O)C(F)(F)F)C(C(=O)NC1CCCCC1)c1ccncc1 (stereo not drawn) | 7.62% |
| O=C(O)c1ccc(NC(=O)c2cn(-c3ccccc3)nc2-c2ccc(Br)cc2)cc1 | 20.4% |
| COc1ccc(-n2c(C)nn(CCOc3ccccc3)c2=O)cc1 | -8.57% |
| CCc1nnc(NC(=O)CSc2nnc(-c3ccoc3C)n2CC(C)C)s1 | -1.6% |
| CCOc1nsc(OCC)n1 | 14.1% |
| Cc1ccccc1C(=O)NNC(=O)CCCCC(=O)NNC(=O)c1ccccc1C | 8.16% |
| COC(=O)CSc1cc(C)nc2ccc(OC)cc12 | 1.44% |
| CSCC[C@H](NC(=O)c1cc([N+](=O)[O-])ccc1Cl)c1nc2ccccc2[nH]1 | -45.4% |
| NC12CC3CC(C1)CC(CO)(C3)O2 | 8.54% |
| COc1ccc(NC(=O)C2CCCN(S(=O)(=O)c3c(C)[nH]c(=O)[nH]c3=O)C2)cc1Cl (stereo not drawn) | 11.4% |
| O=C(Nc1ccc(Cl)cc1C(=O)N1CCCC1)c1cccc([N+](=O)[O-])c1 | -12% |
| CC(=O)c1cccc(NC(=O)CSc2ccc(-c3ccccn3)nn2)c1 | -13.6% |
| CN(CC(=O)NC1CCN(Cc2ccccc2)CC1)S(=O)(=O)c1ccc(Cl)cc1 | -40.2% |
| COc1ccc(/C=C2\Oc3cc(OCC(=O)N4CCC[C@H]4CO)ccc3C2=O)c(OC)c1 | 2.85% |
| Cc1ccoc1C(=O)NCCCNC(=O)c1occc1C | 20.4% |

| SMILES | hERG current change (%, negative = inhibition) at 10uM |
| --- | --- |
| Cc1ccc2nc(N/N=C/c3ccco3)cc(C)c2c1 | -64.3% |
| Cn1ncc([N+](=O)[O-])c1C(=O)Nc1ccc(-c2ccccc2)cc1 | 14.1% |
| CCO[C@@H]1OC(C(=O)NCc2nc3ccccc3[nH]2)=C[C@H](C2CCCCC2)[C@H]1CCCO | -7.48% |
| CCOc1ccc(S(=O)(=O)N2CCN(Cc3ccc4c(c3)OCO4)CC2)cc1OCC | -3.85% |
| CCOC(=O)C1Nc2c(F)cc(C)cc2C2C=CCC12 (stereo not drawn) | 15.5% |
| O=C(Cc1csc(NC(=O)Nc2cccc(Cl)c2)n1)NCc1cccnc1 | -53.8% |
| COc1ccc(OC)c(/C=N/NC(=O)c2cccc3ccccc23)c1 | 10.9% |
| Cc1csc(NC(=O)CSc2nnc(-c3cccs3)n2C)n1 | -60.5% |
| O=C(NCC1COc2ccccc2O1)c1cc2ccccc2o1 (stereo not drawn) | -2.7% |
| COc1ccc(C(=O)OC(C)CN2CCOCC2)cc1.Cl (stereo not drawn) | -1.81% |
| CCC(C)C(NC(=O)OC(C)(C)C)C(=O)NC(CC(C)C)C(N)=O (stereo not drawn) (Boc-Ile-Leu-NH2; configuration not given here) | 7.22% |
| O=c1ccc(Oc2nc(N3CCOCC3)nc(N3CCOCC3)n2)n[nH]1 | 2.3% |
| Nc1c(C(=O)CSc2nccn2-c2ccc(Cl)cc2)c(=O)[nH]c(=O)n1C1CC1 | 17.5% |
| Clc1ccc(CN2CCSCC2)cc1Cl | 12.5% |
| Cc1nc(N2CCOCC2)nc2c1CCC2 | 7.62% |
| CCCOC(=O)CC1C(=O)NCCN1Cc1ccccc1C (stereo not drawn) | 16.2% |
| O=C(CCCc1nc2ccccc2s1)Nc1ccc(N2CCOCC2)cc1 | 25.7% |
| CCOC(=O)c1ccccc1NC(=O)c1ccc2nccnc2c1 | -18% |
| O=C1NC(Cc2ccccc2)c2nc3cc(F)ccc3c(=O)n2-c2cc(Cl)ccc21 (stereo not drawn) | -1.97% |
| CCOc1ccc(-c2nnn(CC(=O)N3CCN(c4ccc(OC)cc4)CC3)n2)cc1OCC | 3.36% |
| CCCNC(=O)CCNC(=O)c1ccc(C(C)(C)C)cc1 | -9.09% |
| CCc1noc(C)c1C(=O)Nc1cc(S(=O)(=O)N2CCOCC2)ccc1OCC(F)(F)F | 12.9% |
| O=C(Cn1cnc2ccccc2c1=O)N1CCOCC1 | 1.45% |

| SMILES | hERG current change (%, negative = inhibition) at 10uM |
| --- | --- |
| N/C(=N\OC(=O)CCCOc1ccccc1)c1ccccn1 | 5.84% |
| O=[N+]([O-])c1ccc([C@H](O)[C@H](CO)N=Cc2ccccc2O)cc1 | 8.19% |
| COc1cccc(NC(=O)Nc2c(C)n(C)n(-c3ccccc3)c2=O)c1 | 3.91% |
| CCOc1ccc(S(=O)(=O)n2nnc3ccccc32)cc1C(C)C | 18.2% |
| COc1ccc(NS(=O)(=O)c2ccc(C)c(C(=O)NCC(c3ccco3)N(C)C)c2)cc1 (stereo not drawn) | -15.2% |
| O=C(NCc1ccco1)C1CCN(C(=O)c2cc3sccc3n2Cc2ccc(F)cc2)CC1 | -68.5% |
| O=C(NC12CC3CC(CC(C3)C1)C2)N1CCC(O)CC1 | 14% |
| CN1CCCN(Cc2nc(-c3ccc(Cl)cc3)no2)CC1 | -72.6% |
| CC1CCCCN1S(=O)(=O)c1cnc(Cl)c(Br)c1 (stereo not drawn) | -16.8% |
| Cc1cc(-c2csc3nc[nH]c(=S)c23)cc(C)c1C | 27.1% |
| O=C(NCc1ccco1)[C@@H]1CSC2c3ccccc3C(=O)N21 (stereo partly drawn) | 9.79% |
| CC(=O)c1c(C)[nH]c(C(=O)Nc2cc(S(=O)(=O)N3CCCCC3)ccc2C)c1C | 2.24% |
| O=C(CSc1nnc(-c2ccco2)o1)c1ccc(O)cc1O | 33.9% |
| Cc1ccc(S(=O)(=O)NCc2cccnc2)cc1C(=O)N1CCCC1 | 20.3% |
| Cc1nnc(SCC(=O)O)s1 | -0.959% |
| CC(C)c1c(C(=O)N/N=C/c2ccco2)nnn1-c1nonc1N | 0.0472% |
| CCN(Cc1ccccc1)C(=O)CSc1ccccc1C(=O)O | 17.2% |
| Cc1cc(OCCNCCO)cc(C)c1Cl | -0.939% |
| CC(C)CN(C(=O)C1CC1)C1CCS(=O)(=O)C1 (stereo not drawn) | -1.65% |
| CCOC(=O)Cn1c(-c2cccnc2Cl)nc2ccccc21 | 7.46% |
| Cc1cccnc1NC(=O)CNC(=O)c1ccccc1 | -2.29% |
